Experimental data taken from PubChem BioAssay AID1794842 (National Center for Advancing Translational Sciences (NCATS), 2023).
In all, about 2,800 compounds went through this assay and fewer than 10 were called active. Calls come from the whole dose curve; as a rule, active = well fitted curve in the direction sought with a large enough effect; inconclusive = small, poorly fitted or top-dose-only effect, or another doubt; inactive = no such curve, though single readings can be large or run the other way. This is one part of the list.

Biological target: Metallo-beta-lactamase type 2 (Klebsiella pneumoniae) (UniProt C7C422)
Assay: qHTS to identify inhibitors of the New Delhi Metallo-beta-lactamase (NDM): Meropenem screen against the machine-based learning selections. Note: % of control where 0% means no effect.
Details: Purified NDM-1, meropenem hydrolysis, absorbance 300 nm; at 38.4 µM (top of the series) unless noted
From the text: Assay Submitter (PI): James Inglese Ph.D., Patricia Dranchak Ph.D., Mahesh Aitha Ph.D. Assay Development and Screening Technology Laboratory (ADST) National Center for Advancing Translational Sciences (NCATS), Rockville, MD National Institute of Health (NIH), Bethesda, Maryland The metallo-beta-lactamases (MBL) are a main antibiotic resistance mechanism evolved by bacteria. There is an urgent clinical need for MBL inhibitors to mitigate this growing threat. To support a machine-based learning study, qHTS has been used to experimentally test inhibitors identified by prediction tools.
PROTOCOL TABLE (as described by Inglese et al., 2007) SEQUENCE No. (e.g., 1, 2, 3, etc.); […] (e.g., enzyme, Incubation, Reagent, etc.); VALUE; DESCRIPTION Primary Screen 1; NDM-1; 4 uL of 3 nM enzyme [2 nM final] in 50 mM HEPES (pH 7.0), 1 uM […], 0.01% Tween20; Use BioRaptr to dispense into two sets of Aurora black, clear bottom high base 1536-well plates 2; Compounds; 23 nL; Use Pin Tool (Wako) to transfer DMSO control and library compounds in DMSO 3; Incubate; >30 min 4a; Reagent; 2 uL of 50 uM nitrocefin [16.7 uM final] to one set of assay plates 4b; Reagent; 2 uL of 150 uM meropenem [50 uM final] to second set of assay plates 5a; Incubate; 15 min 5b; Incubate; 30 min 6a; Detector; Absorbance at 485 nm (bandwidth = 5 nm, 25 flashes/well) on Tecan Infinity 6b; Detector; Absorbance at 300 nm (bandwidth = 5 nm, 25 flashes/well) on Tecan Infinity NOTES (numbers refer to sequence above) 1; Column 1 of each plate received assay buffer without enzyme and columns 2-48 received enzyme for a final assay concentration of 2 nM. 2; Control plate contained DMSO in columns 1, 2, 3, and 4. 3; Compound interaction with enzyme. 4; Nitrocefin and meropenem substrates were prepared in the same assay buffer as step 1 for a final assay concentration of 16.7 uM and 50 uM, respectively, and added to all wells across respective sets of assay plates. 5; Default reader settings were applied for absorbance read at 485 nm (nitrocefin) or 300 nm (meropenem), bandwidth = 5 nm, 25 flashes/well. References: Inglese J, Shamu CE, Guy RK. 2007. Reporting data from high-throughput screening of small-molecule libraries. Nat Chem Biol. doi:10.1038/nchembio0807-438 Yasgar A, Shinn P, Jadhav A, Auld D, Michael S, Zheng W, Austin CP, Inglese J, Simeonov A. 2008. Compound Management for Quantitative High-Throughput Screening. J Lab Autom 13:79 - 89. doi:10.1016/j.jala.2007.12.004

UniProt C7C422, sequence (C7C422 whole entry, looked up): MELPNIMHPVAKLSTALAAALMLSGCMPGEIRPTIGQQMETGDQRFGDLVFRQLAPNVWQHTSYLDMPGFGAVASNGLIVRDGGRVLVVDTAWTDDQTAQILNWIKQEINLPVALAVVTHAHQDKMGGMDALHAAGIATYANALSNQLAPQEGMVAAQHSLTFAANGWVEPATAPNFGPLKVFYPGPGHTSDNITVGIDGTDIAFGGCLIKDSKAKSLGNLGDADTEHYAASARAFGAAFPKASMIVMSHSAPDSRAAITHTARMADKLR

Activity change, negative = inhibition, inactive:
COC(=O)[C@H](NC(=O)[C@@H]1C[C@@H](NC(=O)c2ccncc2)CCN1S(=O)(=O)c1ccc(OC)cc1)C(C)C -0.0853%
O[C@@H]1C[C@@H](c2nc(-c3cnccn3)no2)N(Cc2ccc(F)cc2)C1 -0.302% [at 57.5 µM]
Clc1cccc(-c2cnc([C@@H]3COCCN3Cc3cnc[nH]3)[nH]2)c1 98.2% [at 57.5 µM]
Cc1nc2c(c(-c3ccc(O)cc3)n1)CN(C(=O)C1CC1)CCC2 0.42% [at 57.5 µM]
COC(=O)c1cccc(C(=O)N[C@H]2CO[C@H]3[C@@H]2OC[C@H]3OC(=O)Nc2cccc(C(F)(F)F)c2)c1 -0.473%
CCN(C)S(=O)(=O)NCC1CCN(c2cnn(C)c(=O)c2)C1 (stereo not given) 3.1%
O=C(NCc1cc2n(n1)CCN(C1CCCCC1)C2)c1cnn2ccccc12 0.117%
COc1ccc(NC(=O)c2nc(C(O)c3cccc(O)c3)oc2C)cn1 (stereo not given) 6.58% [at 57.5 µM]
O=C(NC[C@H]1O[C@@H](CO)[C@@H](O)[C@H]1N1CCN(c2ccc(F)cc2)CC1)c1ccccc1 49.5%
CCN(Cc1cnn(CC)c1)C(=O)C1COc2ccccc2C1 (stereo not given) -0.808%
COc1ccc(C(=O)N[C@H]2CO[C@H]3[C@@H]2OC[C@@H]3n2nnnc2-c2ccc3c(c2)OCO3)cc1 2.13%
COc1cc(C)c2c(c1C)C[C@H](C(C)C(=O)N1CCSCC1)CC2 (stereo not given in full) -0.792% [at 57.5 µM]
CC1(c2ccccc2)CCCN(C(=O)c2cc(-c3ccncc3)n[nH]2)C1 (stereo not given) 0.839%
c1cncc(-c2ccnc(NCCCn3nccc3C3CC3)n2)c1 -0.339%
CC(=O)N1CCN(C(=O)C2CCNCC2)C[C@@H]1C(=O)N[C@@H](CC1CCCCC1)C(N)=O -2.13%
CC1(CNc2ccccc2)COc2ccc(C(=O)NCCc3ccccn3)cc2N1 (stereo not given) 29% [at 57.5 µM]
NC(=O)c1nc(CNC(=O)[C@H]2CCC[C@H](O)C2)no1 -0.953%
COc1ccccc1CNC[C@H]1O[C@@H]2C[C@@H](CC(=O)NCc3nccn3C)O[C@@H]2[C@@H]1O -0.0538% [at 57.5 µM]
COc1ccc(OC)c(S(=O)(=O)N2CCCC(Cn3c(C)nc4cccnc43)C2)c1 (stereo not given) 0.467%
O=C1Nc2ccc(-c3ccc(Cl)cc3)cc2C(=O)N2CC[C@H](NC(=O)N3CCOCC3)[C@@H]12 3.16%
